The list shows a part of the results.

For this assay, the system named is HepG2. In words: cytotoxicity call (relative viability < 0.9). The conditions noted are these: 10 µM.
Consider `Cc1ccc(S(=O)(=O)Nc2ccc3c(c2)C(=O)N([C@H](C)CO)C[C@@H](C)[C@H](CN(C)C(=O)Nc2ccc(C(F)(F)F)cc2)O3)cc1`, for which the cytotoxicity call was “inactive”. Take `COc1ccc2c3c([nH]c2c1)[C@H](CO)N(C[C@]13CN(C1)S(=O)(=O)c1cn(cn1)C)C(=O)Nc1ccc(cc1)F`: the cytotoxicity call was “inactive”.

Regarding `CN1C[C@@H](O)COC[C@@H]2O[C@H](CC(=O)N3CCN(c4ccccc4)CC3)CC[C@H]21`, the cytotoxicity call is “inactive”. For `C[C@H](CO)N1C[C@H](C)[C@@H](CN(C)C(=O)Nc2ccccc2)Oc2ccc(NS(C)(=O)=O)cc2C1=O`, the cytotoxicity call was “inactive”.

Turning to `C[C@H](CO)N1C[C@H](C)[C@@H](CN(C)S(=O)(=O)c2ccc(Cl)cc2)Oc2ccc(NC(=O)c3ccncc3)cc2CC1=O`, the cytotoxicity call was “inactive”. `Cn1c(=O)c2cn3ncccc3c2n(C)c1=O`: the cytotoxicity call is “inactive”.

As to `C[C@@H]1CN([C@@H](C)CO)C(=O)c2cccc(NC(=O)C3CCCCC3)c2O[C@@H]1CN(C)Cc1ccc(C(=O)Nc2ccccc2N)cc1`, the cytotoxicity call is “active”. Regarding `C[C@@H]1CN([C@H](C)CO)C(=O)c2cc(NC(=O)NC3CCCCC3)ccc2O[C@@H](C)CCCCO[C@H]1CN(C)C(=O)NC1CCCCC1`, the cytotoxicity call is “inactive”.

For the molecule `CSCC[C@@H](N)C(=O)O`, the cytotoxicity call is “inactive”.

With `CNC(=O)[C@H]1O[C@H](n2cnc3c(NCc4cccc(I)c4)ncnc32)[C@@H](O)[C@@H]1O`, the cytotoxicity call is “inactive”.

Turning to `C[C@H](CO)N1C[C@H](C)[C@H](CN(C)C(=O)c2ccccc2)OCCCC[C@H](C)Oc2ccc(NC(=O)Nc3ccc(F)cc3)cc2C1=O`, the cytotoxicity call is “inactive”. For `C[C@@H]1CCCCO[C@H](CN(C)Cc2ccccc2)[C@@H](C)CN([C@H](C)CO)C(=O)c2cc(NC(=O)C3CCCCC3)ccc2O1`, the cytotoxicity call was “inactive”.

Consider `CC(C)NC(=O)N(C)C[C@@H]1OCc2cn(nn2)CCCC(=O)N([C@@H](C)CO)C[C@@H]1C`, for which the cytotoxicity call is “inactive”. For `C[C@H]1CCCCO[C@@H](CN(C)Cc2ccncc2)[C@@H](C)CN([C@@H](C)CO)C(=O)c2cc(NC(=O)Nc3cccc4ccccc34)ccc2O1`, the cytotoxicity call was “inactive”. On to `Cc1cc(N)no1`, for which the cytotoxicity call was “inactive”. In the case of `C[C@@H]1CN([C@H](C)CO)C(=O)c2cc(NS(=O)(=O)c3cn(C)cn3)ccc2O[C@H]1CN(C)S(=O)(=O)c1cccs1`, the cytotoxicity call was “inactive”. Consider `C[C@H](CO)N1C[C@H](C)[C@H](CN(C)Cc2ccc(C(=O)O)cc2)OCCCC[C@H](C)Oc2ccc(NC(=O)NC3CCCCC3)cc2C1=O`, for which the cytotoxicity call is “inactive”. Consider `C[C@H]1CN([C@@H](C)CO)C(=O)c2cccc(NC(=O)c3cnccn3)c2O[C@@H]1CN(C)S(=O)(=O)c1ccc(F)cc1`, for which the cytotoxicity call was “inactive”.

In the case of `C[C@H]1CN([C@@H](C)CO)C(=O)c2cccc(NC(=O)c3ccc(-c4nccs4)cc3)c2O[C@@H]1CN(C)Cc1ccc(C(=O)Nc2ccccc2N)cc1`, the cytotoxicity call is “inactive”. Take `C=CC1(C)CC(=O)C2(O)C(C)(O1)C(OC(C)=O)C(O)C1C(C)(C)CCC(O)C12C` (stereo not given): the cytotoxicity call is “inactive”. In the case of `Cc1cc(-c2ccccc2)nc(-c2ccccc2)c1C`, the cytotoxicity call is “inactive”. For the molecule `CCN(CC)c1ncc(C#N)c(N)n1`, the cytotoxicity call was “inactive”. For `C[C@H](CO)N1C[C@H](C)[C@H](CN(C)C(=O)Nc2ccc(F)cc2)Oc2ccc(NC(=O)Cn3cnnn3)cc2C1=O`, the cytotoxicity call is “inactive”. Under `Cc1ccc(S(=O)(=O)N(C)C[C@H]2OCCCC[C@H](C)Oc3ccc(NS(=O)(=O)c4ccc(Cl)cc4)cc3C(=O)N([C@H](C)CO)C[C@@H]2C)cc1` stands “inactive”; under `C[C@H](CO)N1C[C@H](C)[C@H](CN(C)C(=O)Nc2ccc(C(F)(F)F)cc2)Oc2ccc(NC(=O)Cc3ccccc3)cc2C1=O`, “active”. Turning to `C[C@@H]1CCCCO[C@H](CN(C)Cc2ccc(C(=O)O)cc2)[C@H](C)CN([C@@H](C)CO)C(=O)c2cc(NS(=O)(=O)c3ccc(F)cc3)ccc2O1`, the cytotoxicity call is “inactive”. Under `CC(C)NC(=O)Nc1cccc2c1O[C@@H](CN(C)S(=O)(=O)c1ccc(F)cc1)[C@@H](C)CN([C@@H](C)CO)C2=O` stands “inactive”; under `COc1ccc(S(=O)(=O)N2C[C@H](O)COC[C@@H]3O[C@@H](CC(=O)NCCCN(C)C)CC[C@H]32)cc1`, “inactive”; under `O=C(C[C@H]1CC[C@H]2[C@@H](COC[C@@H](O)CN2S(=O)(=O)c2ccccc2Cl)O1)NCCc1ccncc1`, “inactive”.

Turning to `O=S(=O)(NCCN(C/C=C/c1ccc(F)cc1)C/C=C/c1ccc(F)cc1)c1cccc2cnccc12`, the cytotoxicity call is “inactive”. Take `CCCCCCC#C[Si](O[C@H](c1ccccc1)c1cn([C@H](CO)Cc2ccccc2)nn1)(C(C)C)C(C)C`: the cytotoxicity call was “inactive”. Consider `Cc1noc(C)c1NC(=O)N(C)C[C@H]1Oc2ccc(NC(=O)CCN3CCOCC3)cc2CC(=O)N([C@H](C)CO)C[C@@H]1C`, for which the cytotoxicity call is “inactive”. With `C[C@H](CO)N1C[C@H](C)[C@H](CN(C)C(=O)C2CC2)Oc2cc(-c3ccc(C(=O)N(C)C)cc3)ccc2S1(=O)=O`, the cytotoxicity call is “inactive”. Consider `C/C=C/c1ccc2c(c1)O[C@H](CN(C)Cc1ccc(C(=O)O)cc1)[C@H](C)CN([C@@H](C)CO)S2(=O)=O`, for which the cytotoxicity call is “inactive”. As for `C[C@@H]1CCCCO[C@@H](CN(C)C(=O)CCC(F)(F)F)[C@H](C)CN([C@@H](C)CO)C(=O)c2cc(NC(=O)CCC(F)(F)F)ccc2O1`, the cytotoxicity call was “inactive”.

Consider `COc1ccc2c(c1)c(CC(=O)O)c(C)n2C(=O)c1ccc(Cl)cc1`, for which the cytotoxicity call was “inactive”.

In the case of `C[C@H]1CN([C@@H](C)CO)C(=O)c2cccc(NC(=O)Nc3ccccc3)c2O[C@H]1CN(C)C(=O)Nc1cccc2ccccc12`, the cytotoxicity call was “inactive”. As for `Cc1noc(C)c1NC(=O)Nc1ccc2c(c1)CC(=O)N([C@@H](C)CO)C[C@H](C)[C@H](CN(C)S(=O)(=O)c1cn(C)cn1)O2`, the cytotoxicity call was “inactive”.

As for `C[C@H]1CN([C@@H](C)CO)C(=O)c2c(c3ccccc3n2C)-c2ccccc2CO[C@H]1CN(C)Cc1ccc(Cl)c(Cl)c1`, the cytotoxicity call was “inactive”. Consider `Cc1ccc(S(=O)(=O)N(C)C[C@@H]2Oc3c(NC(=O)Nc4cccc5ccccc45)cccc3C(=O)N([C@@H](C)CO)C[C@H]2C)cc1`, for which the cytotoxicity call was “inactive”.
